# Experimental data published in the supplement of paper PMC4604168 (melanoma cell lines).
# Some of the results follow. Most values come without repeats; read them as rough.
# Experiments:
# Experiment in all cases: cell count relative to DMSO control; melanoma cells; higher = more viable cells
# Settings in all cases: library dose: standard library concentration; 72 h
# [1] = test system: 501Mel
# [2] = test system: A101D
# [3] = test system: A2058
# [4] = test system: A375
# 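Note: cells treated in 1,536-well plates, then fixed and DAPI-stained, with nuclei counted from automated high-throughput microscope images.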
SMILES,cell count [1],cell count [2],cell count [3],cell count [4]
"N#CC[C@H](C1CCCC1)n1cc(-c2ncnc3[nH]ccc23)cn1 [ruxolitinib] + CCc1ccc(CCOc2ccc(CC3SC(=O)NC3=O)cc2)nc1 [pioglitazone] (first compound 5 µM, partner dose 10 µM)",118%,126%,74.3%,96.5%
"N#CC[C@H](C1CCCC1)n1cc(-c2ncnc3[nH]ccc23)cn1 [ruxolitinib] + COc1ccc(COc2ccc(Cc3cnc(N)nc3N)cc2OC)cc1 [GW2580] (first compound 5 µM, partner dose 5 µM)",92.2%,121%,85.4%,134%
"CC[C@]1(O)C[C@H]2CN(CCc3c([nH]c4ccccc34)[C@@](C(=O)OC)(c3cc4c(cc3OC)N(C=O)[C@H]3[C@@](O)(C(=O)OC)[C@H](OC(C)=O)[C@]5(CC)C=CCN6CC[C@]43[C@@H]65)C2)C1 [vincristine] + COc1ccc(COc2ccc(Cc3cnc(N)nc3N)cc2OC)cc1 [GW2580] (first compound 0.0005 µM, partner dose 5 µM)",91.8%,95%,98%,86.1%
"CC[C@]1(O)C[C@H]2CN(CCc3c([nH]c4ccccc34)[C@@](C(=O)OC)(c3cc4c(cc3OC)N(C=O)[C@H]3[C@@](O)(C(=O)OC)[C@H](OC(C)=O)[C@]5(CC)C=CCN6CC[C@]43[C@@H]65)C2)C1 [vincristine] + N#Cc1c(O)c2c(-c3ccc(-c4ccccc4O)cc3)csc2[nH]c1=O [A769662] (first compound 0.0005 µM, partner dose 10 µM)",41.9%,48.7%,8.95%,106%
"CC[C@]1(O)C[C@H]2CN(CCc3c([nH]c4ccccc34)[C@@](C(=O)OC)(c3cc4c(cc3OC)N(C=O)[C@H]3[C@@](O)(C(=O)OC)[C@H](OC(C)=O)[C@]5(CC)C=CCN6CC[C@]43[C@@H]65)C2)C1 [vincristine] + CC(C)CCN1c2nc(Nc3cc(F)c(O)c(F)c3)ncc2N(C)C(=O)C1C [BID1870] (first compound 0.0005 µM, partner dose 1 µM)",35.3%,39.7%,10.5%,123%
"CC[C@]1(O)C[C@H]2CN(CCc3c([nH]c4ccccc34)[C@@](C(=O)OC)(c3cc4c(cc3OC)N(C=O)[C@H]3[C@@](O)(C(=O)OC)[C@H](OC(C)=O)[C@]5(CC)C=CCN6CC[C@]43[C@@H]65)C2)C1 [vincristine] + CCCCCCCCCCCC1=C(O)C(=O)C=C(O)C1=O [Embelin] (first compound 0.0005 µM, partner dose 6 µM)",28.9%,33.1%,5.95%,97.3%
"Cc1cc(Nc2cc(N3CCN(C)CC3)nc(Sc3ccc(NC(=O)C4CC4)cc3)n2)n[nH]1 [Tozasertib] + COc1ccc(-c2ccc3c(N4CCOCC4)nc(N4C[C@@H](C)O[C@@H](C)C4)nc3n2)cc1CO [KU0063794] (first compound 0.03 µM, partner dose 0.1 µM)",83.3%,79.3%,73.1%,97.9%
"N#CC[C@H](C1CCCC1)n1cc(-c2ncnc3[nH]ccc23)cn1 [ruxolitinib] + COC(=O)c1sccc1S(=O)(=O)Nc1ccc(Nc2ccccc2)cc1OC [GSK0660] (first compound 5 µM, partner dose 5 µM)",118%,90.8%,78.6%,147%
"CC[C@]1(O)C[C@H]2CN(CCc3c([nH]c4ccccc34)[C@@](C(=O)OC)(c3cc4c(cc3OC)N(C=O)[C@H]3[C@@](O)(C(=O)OC)[C@H](OC(C)=O)[C@]5(CC)C=CCN6CC[C@]43[C@@H]65)C2)C1 [vincristine] + CCN(CC)CCCCNc1ncc2cc(-c3cc(OC)cc(OC)c3)c(NC(=O)NC(C)(C)C)nc2n1 [PD173074] (first compound 0.0005 µM, partner dose 0.5 µM)",119%,86.7%,91.5%,114%
"CC[C@]1(O)C[C@H]2CN(CCc3c([nH]c4ccccc34)[C@@](C(=O)OC)(c3cc4c(cc3OC)N(C=O)[C@H]3[C@@](O)(C(=O)OC)[C@H](OC(C)=O)[C@]5(CC)C=CCN6CC[C@]43[C@@H]65)C2)C1 [vincristine] + c1cc(-c2cnn3cc(-c4ccc(OCCN5CCCCC5)cc4)cnc23)ccn1 [Dorsomorphin] (first compound 0.0005 µM, partner dose 2 µM)",20.3%,45.7%,2.57%,49.2%
